Screen size: about 52,000 compounds; about 4,300 (8.3%) were called active. No stated cut-off is given here; in the data, active means survival mostly below about 52% (no sharp cut-off); inactive means mostly above about 56%. Some of the results follow.
What follows are compounds tested on DeltatarO mutant (assay: S. aureus survival, RN4220 and DeltatarO strains – OD600, teichoic acid synthesis inhibitors, primary screen (AID 463173)). Conditions: S. aureus RN4220 wild type/DeltatarO growth, OD600, 18 h, stronger effect = lower value, screened at 18.75 µg/mL (by protocol).

Row | SMILES | survival
1 | CCCNC(=O)C1CCC(Cn2c(=O)c3sccc3n(CC(=O)NCc3ccccc3)c2=O)CC1 (stereo unspecified) | inactive: 76%
2 | Cc1nn(CCCC(=O)NCc2ccccc2Br)c(=O)c2c1sc1ccccc12 | inactive: 88%
3 | O=C(/C=C/N1CCOCC1)c1cc2ccccc2o1 | inactive: 99%
4 | CCOc1ccc(S(=O)(=O)N(CC(=O)Nc2ccc(OC)cc2OC)c2ccccc2)cc1 | inactive: 145%
5 | O=C(CN1C=NS(=O)(=O)c2ccccc21)Nc1ccccc1F | inactive: 77%
6 | O=C(NCc1ccccc1F)C1CCCN(C(=O)N2CCOc3ccccc32)C1 (stereo unspecified) | inactive: 86%
7 | Cc1ccc2c(CC(=O)Nc3ccc(S(=O)(=O)N4CCCCC4C)cc3)coc2c1C (stereo unspecified) | inactive: 53%
8 | CCc1ccc2ncc3c(-c4ccc(F)cc4)nn(CC(=O)NC4CCCCC4)c3c2c1 | inactive: 106%
9 | CCOC(=O)Cn1c(=O)n(-c2cccc(Cl)c2)c2nc(-c3ccccc3Cl)nc(C(N)=O)c21 | inactive: 80%
10 | COc1ccc(N2CCN(CCCNC(=O)c3nnc(Cc4ccc(F)cc4)o3)CC2)cc1 | inactive: 107%
11 | CN(C)c1ccc(CNC(=O)Cc2ccc(NC(=O)N3CCCCc4ccccc43)cc2)cc1 | inactive: 83%
12 | CC(C)(C)NC(=O)CCSc1nnc(-c2ccccc2)o1 | inactive: 84%
13 | CC(=O)N1c2ccc(S(=O)(=O)N3CCC(C(=O)Nc4cccc(Cl)c4C)CC3)cc2CC1C (stereo unspecified) | inactive: 84%
14 | CC(C)(C)C(=O)C1=C(O)C(=O)N(Cc2ccccc2)C1c1cccnc1 (stereo unspecified) | inactive: 99%
15 | COc1ccc(Nc2ncc(C(=O)Nc3ccc(F)cc3F)c3ccccc23)cc1 | active: 35%
16 | CCOCCCn1c(SCC(=O)Nc2ccc(F)cc2)nc2c(sc3ccccc32)c1=O | inactive: 128%
17 | CCC(C(=O)Nc1cc(-c2cn3cccnc3n2)ccc1C)c1ccccc1 (stereo unspecified) | inactive: 91%
18 | COc1ccccc1N1CCN(S(=O)(=O)c2ccc3c(c2)CCCN3C(C)=O)CC1 | inactive: 58%
19 | Cc1cc(=O)n2nc(N3CCC(C(=O)NCCCOC(C)C)CC3)sc2n1 | inactive: 100%
20 | O=C(CC1NCCNC1=O)Nc1ccc(F)c(Cl)c1 (stereo unspecified) | inactive: 70%
21 | O=C(CSc1nnc(CNC(=O)c2ccccc2)n1-c1ccc(F)cc1)Nc1ccccc1F | inactive: 74%
22 | Cc1cc(NC(=O)c2oc3c(c2C)-c2[nH]ncc2CC3)ccc1Br | active: 3%
23 | Cc1nn(-c2ccc(F)cc2)c(-n2cccc2)c1C(=O)N1CCCCC1C (stereo unspecified) | inactive: 75%

Row | SMILES | survival
24 | COc1ccc(NC(=O)CN2CCCN(Cc3ccccc3)S2(=O)=O)cc1 | inactive: 88%
25 | Fc1ccc(CNc2nc(-c3ccc(Cl)cc3)cc(C(F)(F)F)n2)cc1 | active: 12%
26 | O=C(CSc1nc2ccccc2nc1Cc1ccc(Cl)cc1)N1CCCCC1 | inactive: 74%
27 | CCCCOC(=O)c1ccc(NC(=O)c2ccc3c(c2)CCCN3S(C)(=O)=O)cc1 | inactive: 96%
28 | CCCCNS(=O)(=O)c1ccc(NC(=O)c2c(-c3ccccc3)noc2C)cc1 | inactive: 101%
29 | COc1ccc(CNC(=O)CSc2ncnc3nc[nH]c23)cc1 | inactive: 73%
30 | CCc1ccccc1-n1c(SCC(=O)Nc2ccc(C)cc2)nc2n[nH]c(C)c2c1=N | inactive: 94%
31 | CCc1cccc(NC(=O)Cn2c(-c3ccc(F)cc3)cc(C(C)=O)c2C)c1 | inactive: 73%
32 | O=C(c1ccc2c(c1)N(Cc1ccccc1Cl)C(=O)c1ccccc1S2)N1CCCC1 | inactive: 90%
33 | COc1ccc(CCCC(=O)NN=Cc2ccco2)cc1 | inactive: 54%
34 | O=C(CC1CCCCC1)Nc1ccccn1 | inactive: 73%
35 | Cc1ccccc1CNC(=O)CN1CCSc2ccccc21 | inactive: 89%
36 | COc1ccc(Cl)cc1NC(=O)CSc1nc(-c2cccs2)cc(C(F)(F)F)n1 | active: 35%
37 | O=c1oc2ccccc2cc1-c1nc(-c2cccc(Cl)c2)cs1 | inactive: 102%
38 | COc1ccccc1N1CCN(c2ncc3c(n2)CCN(Cc2ccc(C)s2)C3)CC1 | inactive: 80%
39 | CCC(CC)C(=O)Nc1ccc2nc(SCC(=O)N3CCOCC3)sc2c1 | inactive: 82%
40 | Cc1ccccc1C(=O)Nc1sc2c(c1C(=O)N1CCCCC1)CCC(C(C)(C)C)C2 (stereo unspecified) | active: -2%
41 | O=C(NCc1ccc(Cl)cc1)C1CCN(S(=O)(=O)c2ccc(F)cc2)CC1 | inactive: 50%
42 | CSc1ccc(CCNC(=O)c2c(C)nn(-c3ccc(F)cc3)c2-n2cccc2)cc1 | inactive: 74%
43 | Cc1ccc(CSc2nc3ccc(NC(=O)CC(C)C)cc3s2)cc1 | inactive: 82%
44 | CCC(C)n1c(SCc2ccc(F)cc2Cl)nc2ccsc2c1=O (stereo unspecified) | inactive: 128%
45 | CCOC(=O)c1noc2ncn(Cc3ccc([N+](=O)[O-])cc3)c(=O)c12 | inactive: 124%
46 | N#Cc1ccc(C2NC(=O)NC3=C2C(=O)OC3)cc1 (stereo unspecified) | inactive: 77%

Row | SMILES | survival
47 | CCN(CC)C(=O)Cn1cc(SCC(=O)Nc2cc(OC)ccc2OC)c2ccccc21 | inactive: 91%
48 | Cc1ccc(Cl)cc1N1CCN(C(=O)c2sc3nc4n(c(=O)c3c2C)CCC4)CC1 | inactive: 68%
49 | CN(C)CCNC(=O)c1ccc2nc(Cc3ccccc3)oc2c1 | inactive: 102%
50 | COc1ccc(Cl)cc1NC(=O)CSc1cc(C)[nH]c(=O)n1 | inactive: 80%
51 | CCCCc1c(C)[nH]c2ccccc2c1=O | inactive: 83%
52 | Cc1cccn2c(=O)cc(CSc3nnc(NC(=O)C(C)C)s3)nc12 | inactive: 91%
53 | CCN(CC)CC(=O)Oc1ccc(NC2=NS(=O)(=O)c3ccccc32)cc1 | inactive: 96%
54 | COc1ccccc1N1CCN(S(=O)(=O)CCNC(=O)COc2ccc(F)cc2)CC1 | inactive: 102%
55 | Cc1ccc(CNC(=O)Cn2c(=O)cc(-c3ccccc3)c3c(C)nn(C)c32)cc1 | inactive: 89%
56 | Cc1c(C(=O)NCCc2ccccc2)cccc1-n1cnc2cccnc21 | inactive: 75%
57 | CCc1ccc(NC(=O)CC2C(=O)N(c3ccc(OC)cc3)C(=O)N2Cc2ccc(OC)cc2)cc1 (stereo unspecified) | inactive: 100%
58 | COc1ccc(CCNc2ncnc3c2c(-c2ccccc2)cn3-c2cccc(Cl)c2)cc1OC | inactive: 69%
59 | CS(=O)(=O)NCc1nnc(SCC(=O)NC2CCCCC2)n1-c1ccc(F)cc1 | inactive: 68%
60 | Cc1cc(F)c(F)cc1C(=O)N1CCN(C)CC1 | inactive: 71%
61 | Cc1cc(C)cc(NC(=O)CN2C(=O)CSc3ccc(S(=O)(=O)N4CCCC4)cc32)c1 | inactive: 85%
62 | CCOc1ccc(NC(=O)Cn2c(=O)n(Cc3ccccc3)c(=O)c3sc4ccccc4c32)cc1 | inactive: 74%
63 | N#Cc1ccc(-c2cccnc2)n(CC(=O)NCc2ccccc2)c1=O | inactive: 90%
64 | Cc1cc(CN2CCC(C)CC2)cc(C)c1O | inactive: 104%
65 | Cc1nn(CC(=O)N2CCN(c3ccccc3)CC2)c(=O)c2cc3cc(F)ccc3n12 | inactive: 89%
66 | CC1=C(c2ccc(C(C)C)cc2)S(=O)(=O)N=C1N1CCC(C(=O)NCc2ccco2)CC1 | inactive: 79%
67 | CCOC(=O)c1c(NC(=O)CSc2cn(CCNC(=O)c3ccccc3OC)c3ccccc23)sc2c1CCCC2 | inactive: 77%
68 | O=C(NCC1CCN(Cc2cccc(F)c2)CC1)c1cc2ccc3cccnc3c2[nH]1 | inactive: 70%
69 | Nc1n[nH]c(-c2ccc(Cl)cc2)c1Cl | inactive: 93%

Row | SMILES | survival
70 | Cc1ccc(NCc2ccccc2-c2nnc(-c3ccccc3Cl)o2)cc1Cl | inactive: 76%
71 | COc1ccc(N2C(=O)CSC23C(=O)N(CC(=O)NCc2ccccc2)c2ccccc23)cc1 (stereo unspecified) | inactive: 94%
72 | CS(=O)(=O)NCCc1csc2nc(-c3ccccc3)nn12 | active: -2%
73 | C/C(=N\NC(N)N)C1CCCCCCCCCCC1 | active: 0%
74 | COc1ccc(S(=O)(=O)NC2(C(F)(F)F)NC(=O)N(CCc3ccc(OC)c(OC)c3)C2=O)cc1 (stereo unspecified) | inactive: 143%
75 | COc1cc(C2C(C(=O)OC(C)C)=C(C)N=C3SCCC(=O)N32)ccc1OCc1ccccc1 (stereo unspecified) | inactive: 66%
76 | COc1ccc(NC(=O)NCc2cccn2Cc2ccc(F)cc2)cc1OC | inactive: 95%
77 | COc1cccc(NC(=O)N(Cc2cn(C)c3ccccc23)C2CCCCC2)c1 | active: -12%
78 | COc1ccc(OC)c(NC(=O)c2c(NCc3ccc(C)o3)sc3c2CCCCC3)c1 | inactive: 68%
79 | Cc1cc(=O)n(Cc2ccc(F)cc2Cl)c2c1c(C)nn2-c1ccccc1 | inactive: 96%
80 | COc1ccccc1CNC(=O)C1CCN(S(=O)(=O)c2c(C)noc2/C=C/c2cccs2)CC1 | inactive: 59%
81 | CCn1c(=O)c2sccc2n2c(CCCC(=O)N3CCN(c4cc(C)ccc4C)CC3)nnc12 | inactive: 95%
82 | Cc1ccn2c(=O)c(C(=O)NCCc3ccc(S(N)(=O)=O)cc3)c(O)nc2c1 | inactive: 66%
83 | Cc1ccc2onc(CC(=O)Nc3cc(F)ccc3F)c2c1 | inactive: 48%
84 | Cc1ccc(-c2cc(C(F)(F)F)n3nc(C(=O)Nc4sc5c(c4C#N)CCC(C)C5)cc3n2)cc1 (stereo unspecified) | inactive: 95%
85 | O=C(CSc1nnc2scc(-c3ccc(Cl)cc3)n12)Nc1ccccc1F | inactive: 62%
86 | COC(=O)c1c(SC)nc2ccccc2c1OCc1ccc(C)cc1C | active: 46%
87 | COc1cc(C(=O)Nc2ccc(Cl)c(-c3nc4ncccc4o3)c2)cc(OC)c1OC | inactive: 123%
88 | Cc1ccc(C)c(-c2nn(CC(=O)Nc3cc(F)ccc3F)c(=O)c3c2CCCC3)c1 | active: 41%
89 | CCOc1cccc(CC(=O)N2CCc3c([nH]c4ccccc34)C2c2ccc(C)cc2)c1OCC (stereo unspecified) | inactive: 75%
90 | CC(CNC(=O)c1ccc(CSc2nc3ccncc3n2Cc2cccc(F)c2)cc1)c1ccccc1 (stereo unspecified) | inactive: 85%
91 | COc1ccc(C(=O)Nc2ccc3c(c2)N(C2CCCC2)C(=O)c2ccccc2S3)cc1OC | inactive: 76%

Source: PubChem BioAssay AID463173 (ICCB-Longwood Screening Facility, Harvard Medical School, 2010)
